Measurements from publication PMC9911399, “Two distinct binding modes provide the RNA-binding protein RbFox with extraordinary sequence specificity”.
Positions count from the first letter of the chain named. The list shows a part of the results.

B1: CAUCUAG (DNA:RNA)
RNA: GGGAGACCGGAAUUCAGAUUGUCCCAUCUAGUUAAAUCCCGUCGUAGCCACCA
DNA 1: CAATCTGAATTCCGGTCTCCC
DNA 2: TGGTGGCTACGACGGGATT
B2: CUUCGAC (DNA:RNA)
RNA: B1 RNA with A26U, U29G, G31C
DNA 1: CAATCTGAATTCCGGTCTCCC
DNA 2: TGGTGGCTACGACGGGATT
B3: UCGCCAU (DNA:RNA)
RNA: B1 RNA with C25U, A26C, U27G, U29C, G31U
DNA 1: CAATCTGAATTCCGGTCTCCC
DNA 2: TGGTGGCTACGACGGGATT
B4: UUAACCU (DNA:RNA)
RNA: GGGAGACCGGAAUUCAGAUUGUCCUUAACCUUUAAAUCCCGUCGUAGCCACCA
DNA 1: CAATCTGAATTCCGGTCTCCC
DNA 2: TGGTGGCTACGACGGGATT
B5: ACUGGAC (DNA:RNA)
RNA: B1 RNA with C25A, A26C, C28G, U29G, G31C
DNA 1: CAATCTGAATTCCGGTCTCCC
DNA 2: TGGTGGCTACGACGGGATT
B6: GAAGAGU (DNA:RNA)
RNA: B4 RNA with U25G, U26A, A28G, C29A, C30G
DNA 1: CAATCTGAATTCCGGTCTCCC
DNA 2: TGGTGGCTACGACGGGATT
B7: AAAGCUC (DNA:RNA)
RNA: B4 RNA with U25A, U26A, A28G, C30U, U31C
DNA 1: CAATCTGAATTCCGGTCTCCC
DNA 2: TGGTGGCTACGACGGGATT
B8: AUAACUG (DNA:RNA)
RNA: B4 RNA with U25A, C30U, U31G
DNA 1: CAATCTGAATTCCGGTCTCCC
DNA 2: TGGTGGCTACGACGGGATT
B9: CUAGCUA (DNA:RNA)
RNA: B4 RNA with U25C, A28G, C30U, U31A
DNA 1: CAATCTGAATTCCGGTCTCCC
DNA 2: TGGTGGCTACGACGGGATT
B10: UGCAGAG (DNA:RNA)
RNA: B1 RNA with C25U, A26G, U27C, C28A, U29G
DNA 1: CAATCTGAATTCCGGTCTCCC
DNA 2: TGGTGGCTACGACGGGATT
B11: GUUUGGA (DNA:RNA)
RNA: B1 RNA with C25G, A26U, C28U, U29G, A30G, G31A
DNA 1: CAATCTGAATTCCGGTCTCCC
DNA 2: TGGTGGCTACGACGGGATT
B12: ACGCGAU (DNA:RNA)
RNA: B1 RNA with C25A, A26C, U27G, U29G, G31U
DNA 1: CAATCTGAATTCCGGTCTCCC
DNA 2: TGGTGGCTACGACGGGATT
B13: AGGCUCU (DNA:RNA)
RNA: B1 RNA with C25A, A26G, U27G, A30C, G31U
DNA 1: CAATCTGAATTCCGGTCTCCC
DNA 2: TGGTGGCTACGACGGGATT
B14: UAGCAAG (DNA:RNA)
RNA: B1 RNA with C25U, U27G, U29A
DNA 1: CAATCTGAATTCCGGTCTCCC
DNA 2: TGGTGGCTACGACGGGATT
B15: ACGUUGC (DNA:RNA)
RNA: B1 RNA with C25A, A26C, U27G, C28U, A30G, G31C
DNA 1: CAATCTGAATTCCGGTCTCCC
DNA 2: TGGTGGCTACGACGGGATT
B16: UAACCUG (DNA:RNA)
RNA: B1 RNA with C25U, U27A, U29C, A30U
DNA 1: CAATCTGAATTCCGGTCTCCC
DNA 2: TGGTGGCTACGACGGGATT
B17: GUACCAC (DNA:RNA)
RNA: B4 RNA with U25G, A28C, C30A, U31C
DNA 1: CAATCTGAATTCCGGTCTCCC
DNA 2: TGGTGGCTACGACGGGATT
B18: UAGAUUG (DNA:RNA)
RNA: B1 RNA with C25U, U27G, C28A, A30U
DNA 1: CAATCTGAATTCCGGTCTCCC
DNA 2: TGGTGGCTACGACGGGATT
B19: GUAGCUA (DNA:RNA)
RNA: B4 RNA with U25G, A28G, C30U, U31A
DNA 1: CAATCTGAATTCCGGTCTCCC
DNA 2: TGGTGGCTACGACGGGATT
B20: ACCGGAC (DNA:RNA)
RNA: B1 RNA with C25A, A26C, U27C, C28G, U29G, G31C
DNA 1: CAATCTGAATTCCGGTCTCCC
DNA 2: TGGTGGCTACGACGGGATT
B21: GACCGGU (DNA:RNA)
RNA: B1 RNA with C25G, U27C, U29G, A30G, G31U
DNA 1: CAATCTGAATTCCGGTCTCCC
DNA 2: TGGTGGCTACGACGGGATT
B22: AGUCGGU (DNA:RNA)
RNA: B1 RNA with C25A, A26G, U29G, A30G, G31U
DNA 1: CAATCTGAATTCCGGTCTCCC
DNA 2: TGGTGGCTACGACGGGATT
B23: CCGGUUA (DNA:RNA)
RNA: B1 RNA with A26C, U27G, C28G, A30U, G31A
DNA 1: CAATCTGAATTCCGGTCTCCC
DNA 2: TGGTGGCTACGACGGGATT
B24: CCAUUUC (DNA:RNA)
RNA: B1 RNA with A26C, U27A, C28U, A30U, G31C
DNA 1: CAATCTGAATTCCGGTCTCCC
DNA 2: TGGTGGCTACGACGGGATT
B25: CGCCUUC (DNA:RNA)
RNA: B1 RNA with A26G, U27C, A30U, G31C
DNA 1: CAATCTGAATTCCGGTCTCCC
DNA 2: TGGTGGCTACGACGGGATT
B26: UAGCUAU (DNA:RNA)
RNA: B1 RNA with C25U, U27G, G31U
DNA 1: CAATCTGAATTCCGGTCTCCC
DNA 2: TGGTGGCTACGACGGGATT
B27: AACCCUA (DNA:RNA)
RNA: B1 RNA with C25A, U27C, U29C, A30U, G31A
DNA 1: CAATCTGAATTCCGGTCTCCC
DNA 2: TGGTGGCTACGACGGGATT
B28: GUCGUAU (DNA:RNA)
RNA: B1 RNA with C25G, A26U, U27C, C28G, G31U
DNA 1: CAATCTGAATTCCGGTCTCCC
DNA 2: TGGTGGCTACGACGGGATT
B29: CGAUCAC (DNA:RNA)
RNA: B1 RNA with A26G, U27A, C28U, U29C, G31C
DNA 1: CAATCTGAATTCCGGTCTCCC
DNA 2: TGGTGGCTACGACGGGATT
B30: GGUUUCU (DNA:RNA)
RNA: B1 RNA with C25G, A26G, C28U, A30C, G31U
DNA 1: CAATCTGAATTCCGGTCTCCC
DNA 2: TGGTGGCTACGACGGGATT
B31: UCUCGAG (DNA:RNA)
RNA: B1 RNA with C25U, A26C, U29G
DNA 1: CAATCTGAATTCCGGTCTCCC
DNA 2: TGGTGGCTACGACGGGATT

What follows are binders tested against T1, RBFOX1 RRM (Homo sapiens, UniProt Q9NWB1 109-208) (assay: EMSA; HiTS-Eq, 1 nM pool, 10 min; buffer printed only for the single-RNA assays: 10 mM Tris pH 7.5, 150 mM NaCl, 3.4 mM EDTA, 0.001% NP-40, 30 C). Conditions: tags: His6 N-terminal (pET28a); label: 5' 32P.
T1 sequence: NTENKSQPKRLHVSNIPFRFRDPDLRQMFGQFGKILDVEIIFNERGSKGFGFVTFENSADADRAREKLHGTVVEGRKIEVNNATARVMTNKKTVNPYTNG
Outline: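 Purified RbFox RRM, wild type or mutant, was incubated for 10 min in 50 µL with 1 nM of a 5′-radiolabelled RNA pool carrying 7 randomized nucleotides, whose flanks were annealed to DNA oligonucleotides, over a series of increasing protein concentrations. Unbound RNA was resolved on 8% native PAGE, cut out, reverse-transcribed, barcoded by PCR and sequenced on an Illumina HiSeq 2500. Relative association constants were derived from changes in read counts for each RNA species versus the control reaction and normalised to the cognate motif.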

Binder | binding signal
B1 | 0.00464 KA relative to UGCAUGU
B2 | 0.0101 KA relative to UGCAUGU
B3 | 0.00472 KA relative to UGCAUGU
B4 | 0.00125 KA relative to UGCAUGU
B5 | 0.0153 KA relative to UGCAUGU
B6 | 0.0143 KA relative to UGCAUGU
B7 | 0.00427 KA relative to UGCAUGU
B8 | 0.00865 KA relative to UGCAUGU
B9 | 0.00791 KA relative to UGCAUGU
B10 | 0.0239 KA relative to UGCAUGU
B11 | 0.00795 KA relative to UGCAUGU
B12 | 0.00671 KA relative to UGCAUGU
B13 | 0.013 KA relative to UGCAUGU
B14 | 0.0159 KA relative to UGCAUGU
B15 | 0.00964 KA relative to UGCAUGU
B16 | 0.0101 KA relative to UGCAUGU

Binder | binding signal
B17 | 0.00436 KA relative to UGCAUGU
B18 | 0.0223 KA relative to UGCAUGU
B19 | 0.00799 KA relative to UGCAUGU
B20 | 0.011 KA relative to UGCAUGU
B21 | 0.012 KA relative to UGCAUGU
B22 | 0.0126 KA relative to UGCAUGU
B23 | 0.00936 KA relative to UGCAUGU
B24 | 0.00251 KA relative to UGCAUGU
B25 | 0.0116 KA relative to UGCAUGU
B26 | 0.00812 KA relative to UGCAUGU
B27 | 0.00078 KA relative to UGCAUGU
B28 | 0.00822 KA relative to UGCAUGU
B29 | 0.00542 KA relative to UGCAUGU
B30 | 0.00829 KA relative to UGCAUGU
B31 | 0.0135 KA relative to UGCAUGU
